# Measured values from PMC4336329 (PLoS ONE, 2015).
# About 2,200 (0.71%) of roughly 310,000 compounds showed an effect of 50% or more. Effects have a minus sign here. Some of the results follow.
# Molecular target: human ether-à-go-go-related gene (hERG) potassium channel (human, UniProt Q12809)
# Test: primary screen, population patch clamp on CHO cells stably expressing hERG
# Sequence of human ether-à-go-go-related gene (hERG) potassium channel (Q12809 whole entry, looked up): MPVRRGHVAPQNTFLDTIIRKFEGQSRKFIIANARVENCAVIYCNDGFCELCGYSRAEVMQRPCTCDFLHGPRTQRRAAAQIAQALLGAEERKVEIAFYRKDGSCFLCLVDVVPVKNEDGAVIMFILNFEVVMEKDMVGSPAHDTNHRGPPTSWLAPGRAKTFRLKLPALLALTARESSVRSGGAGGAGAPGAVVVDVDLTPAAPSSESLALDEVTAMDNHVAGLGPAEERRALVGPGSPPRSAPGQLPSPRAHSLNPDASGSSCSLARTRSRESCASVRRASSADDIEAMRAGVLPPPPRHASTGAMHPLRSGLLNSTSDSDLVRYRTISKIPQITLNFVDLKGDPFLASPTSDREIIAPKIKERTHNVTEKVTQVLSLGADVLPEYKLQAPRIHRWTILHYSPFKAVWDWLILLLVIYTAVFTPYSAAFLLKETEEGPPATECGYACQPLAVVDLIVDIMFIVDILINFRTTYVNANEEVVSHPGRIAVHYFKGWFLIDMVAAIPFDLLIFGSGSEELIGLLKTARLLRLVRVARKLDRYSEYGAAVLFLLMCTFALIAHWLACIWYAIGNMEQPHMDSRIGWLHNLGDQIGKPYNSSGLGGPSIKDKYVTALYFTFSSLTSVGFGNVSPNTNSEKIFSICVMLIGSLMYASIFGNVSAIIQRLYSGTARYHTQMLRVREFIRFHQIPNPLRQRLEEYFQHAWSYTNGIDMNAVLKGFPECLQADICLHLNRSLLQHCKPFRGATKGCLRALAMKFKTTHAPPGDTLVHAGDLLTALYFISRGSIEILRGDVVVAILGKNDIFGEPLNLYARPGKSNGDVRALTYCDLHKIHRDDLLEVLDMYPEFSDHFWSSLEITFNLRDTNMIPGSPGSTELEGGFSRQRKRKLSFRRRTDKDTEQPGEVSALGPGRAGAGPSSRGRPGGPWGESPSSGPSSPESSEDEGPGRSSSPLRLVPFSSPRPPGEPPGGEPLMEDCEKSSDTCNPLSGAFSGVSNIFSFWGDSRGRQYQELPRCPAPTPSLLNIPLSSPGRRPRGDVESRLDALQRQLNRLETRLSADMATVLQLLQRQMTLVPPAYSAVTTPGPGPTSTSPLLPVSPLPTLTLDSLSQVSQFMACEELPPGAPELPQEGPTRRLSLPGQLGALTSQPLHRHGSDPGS
row,SMILES,"hERG current change (%, negative = inhibition) at 1uM [%]"
1,Cn1c(=O)oc2cc(S(=O)(=O)NCCC(=O)NC3CCCc4ccccc43)ccc21 (stereo not drawn),12.7
2,C=C(C)C(=O)Nc1nnc(-c2cccs2)s1,17.6
3,Cc1ccc(NC(=O)CSc2ccc(-c3cccnc3)nn2)c(C)c1,1.37
4,COC(=O)c1ccc(NC(=O)COC(=O)CSc2nc(C)cc(C)n2)cc1,11.8
5,Cc1cc2c(cc1C)C(c1ccccc1OC(C)C)CC(=O)N2 (stereo not drawn),8.95
6,COc1ccccc1C(=O)N/C(=C\c1ccccc1)C(=O)NCc1ccco1,2.29
7,Cc1cc(C)n(Cc2cc(C(=O)O)c3ccccc3n2)n1,4.44
8,Cc1ccc(S(=O)(=O)N2CCN(CC(=O)N3CCOCC3)CC2)cc1,14
9,COc1cccc(NC(=S)N(CCc2nc3cc(C)c(C)cc3[nH]2)Cc2cccnc2)c1,7.28
10,CN(C(=O)CSc1nncn1C)C1CCCN(Cc2ccccc2F)C1 (stereo not drawn),-0.252
11,CCOc1ccc(C2CC(c3c(O)n(C)c(=O)n(C)c3=O)=NN2)cc1 (stereo not drawn),6.28
12,CC1=C(c2ccc(C(C)C)cc2)S(=O)(=O)N=C1N1CCN(C(=O)c2ccco2)CC1,-0.255
13,Cc1c(NC(=O)c2cc3nc(-c4ccccc4)cc(C)n3n2)c(=O)n(-c2ccccc2)n1C,0.844
14,Cc1cccn2c(=O)c3cc(C(=O)NCc4ccco4)c(=N)n(CCc4ccccc4)c3nc12,-82.2
15,COC(=O)c1ccc(OC(=O)c2ccc(OC)cc2)c(OC)c1,20.8
16,COc1cccc(-c2nnc(SCC(=O)N3CCOCC3)o2)c1,6.14
17,Cc1cc(Nc2ccccc2)n(-c2nc3ccccc3[nH]2)n1,13.5
18,Cc1cccc(C)c1NS(=O)(=O)c1ccc(OCCNS(C)(=O)=O)cc1,7.78
19,CCCCC(=O)NC(=S)NNC(=O)c1ccc(OC)cc1,10.5
20,COc1ccc(N/C(C)=C2/C(=O)C(=O)N(CCO)C2c2ccc([N+](=O)[O-])cc2)cc1 (stereo not drawn),-7.62
21,Cc1ccc2[nH]c3c(c2c1)CCC3=O,0.963
22,COc1cc(/C=N\NC(=O)C2CC3C=CC2C3)ccc1O (stereo not drawn),9.05
23,COc1cc(OC)cc(C(C(=O)NCc2ccccc2)N(Cc2ccco2)C(=O)c2ccno2)c1 (stereo not drawn),7.21
24,CCOC(=O)N1CCC(N2CCN(c3cc(C)ccc3C)CC2)CC1,-32.2
25,CCCCc1nnc(NC(=O)CN2C(=O)C3CCCCC3C2=O)s1 (stereo not drawn),11.8
26,CCN(C(=O)COC(=O)COc1ccccc1Cl)c1c(N)n(Cc2ccccc2)c(=O)[nH]c1=O,9.53
27,CCN(CC)C(=O)CN1C(=O)C2(OCC(C)(C)CO2)c2ccccc21,9.97

row,SMILES,"hERG current change (%, negative = inhibition) at 1uM [%]"
1,COC(=O)CC1=NN(c2nc(C)cc(C)n2)C(=O)C1,10.2
2,COc1ccccc1NC(=O)c1sc2nc(-c3ccco3)ccc2c1N,8.84
3,Cc1nn(-c2nnc(NCc3ccccc3)nn2)c(C)c1Br,6.29
4,Cn1c(=O)[nH]c2nc[nH]c2c1=O,15.6
5,Cc1cc(C)n(C(C)CC(=O)Nc2ccc(-c3ccno3)cc2)n1 (stereo not drawn),0.72
6,Cc1ccc2c(c1)N(CCCC(=O)Nc1cccc(C(F)(F)F)c1)C(=O)CO2,15.5
7,CCOC(=O)c1c(NC(=O)C2c3ccccc3Oc3ccccc32)sc(C(C)=O)c1C,20.4
8,Cc1cc(C(F)F)n2ncc(C(=O)N3CCc4ccccc4C3)c2n1,-7.82
9,O=C1CCC(=O)N1c1ccc(S(=O)(=O)Nc2cccc([N+](=O)[O-])c2)cc1,14
10,Fc1ccc(Cn2cc(C(=S)N3CCOCC3)c3ccccc32)cc1,11.5
11,Cc1ccc(C(C(=O)NC2CCCCC2)N(C(=O)CCCC(=O)Nc2ccccn2)c2ccc3c(c2)OCCO3)cc1 (stereo not drawn),-2.7
12,COC(=O)/C(=C\Nc1ccccc1)NC(=O)c1ccc(Cl)cc1Cl,5.02
13,O=C(CN1C(=O)NC2(CCCCC2)C1=O)NCC(=O)Nc1ccc(F)c(F)c1,4.14
14,Cc1ccc(N2C(=O)NC(=O)/C(=C\c3cc(C)n(-c4cc(C(=O)O)cc(C(=O)O)c4)c3C)C2=O)cc1,11
15,CC1CCN(Cc2c(O)ccc3c2O/C(=C\c2ccco2)C3=O)CC1,0.393
16,CN(C)CCNc1c2c(c(C#N)c3nc4ccccc4n13)CCCC2,6.94
17,C=CCc1cc(C)ccc1OCCOCCn1ccnc1.O=C(O)C(=O)O,-5.94
18,CCn1nc(C)c(CN2CCCCC2C(=O)Nc2ccc(Oc3cccnc3)cc2)c1C (stereo not drawn),3.19
19,Cc1ccc(S(=O)(=O)N2CCC(C(=O)N3CC(C)OC(C)C3)CC2)cc1 (stereo not drawn),10.2
20,COc1ccc(NC(=O)COC(=O)C2CC(=O)N(CCc3ccc(OC)c(OC)c3)C2)cc1Cl (stereo not drawn),13.4
21,Cc1ccc(-n2c(C)nnc2SCC(=O)N(C)c2c(N)n(Cc3ccccc3)c(=O)[nH]c2=O)cc1,6.87
22,COc1cc(C=O)ccc1OCCCOc1ccc([N+](=O)[O-])cc1,9.56
23,COc1ccc2c(CC(=O)Nc3nccs3)coc2c1,14
24,COc1ccc(C)cc1NC(=O)C1CCN(S(=O)(=O)c2cccc3cccnc23)CC1,12.7
25,O=C(CCCN1C(=O)/C(=C\c2cccc(Br)c2)SC1=S)Nc1cccnc1,16
26,Cc1cc(C)cc(SCc2noc(C(=O)NCc3ccccc3)c2C(=O)NCc2ccccc2)c1,17
27,Cc1ccccc1Nc1c(F)c(F)c(F)c(F)c1C(=O)O,11.4
